# Assay results published in the supplement of paper PMC8728848.
# Some of the results follow.
# B1: LYVE-1 (Homo sapiens), Q9Y5Y7 (protein)
# chain: MARCFSLVLLLTSIWTTRLLVQGSLRAEELSIQVSCRIMGITLVSKKANQQLNFTEAKEACRLLGLSLAGKDQVETALKASFETCSYGWVGDGFVVISRISPNPKCGKNGVGVLIWKVPVSRQFAAYCYNSSDTWTNSCIPEIITTKDPIFNTQTATQTTEFIVSDSTYSVASPYSTIPAPTTTPPAPASTSIPRRKKLICVTEVFMETSTMSTETEPFVENKAAFKNEAAGDPEVKFNWYVDGVEVHNAKPREEQYNSTYRVVSLVTVLHQDWLNGKEYKCKVSNKALPAPIEKTISKAKGQPREPQVYTLPPSRDELTKNQVSLTCLVKGFYPSDIAVEWESNGQPENNYKTTPPVLDSDGSFFLYSKLTVDKSRWQQGNVFSCSVMHEALHNHYTQRSLSLSPGK
# What was measured:
# Assay in all cases: glycan array binding signal (z-score within array); higher = stronger binding
# Settings in all cases: glycan notation: IUPAC condensed, linker removed
# [1] = biological target: Gal(b1-2)Gal
# Method in brief: (§1)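 The Consortium for Functional Glycomics database supplied 3228 glycan arrays, of which those lacking an available protein sequence were dropped. The binding signal, a within-array Z-score, was averaged across arrays of the same protein sequence and across linkers. Negative scores can be read as non-binding.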
# [2] = biological target: Gal(b1-3)Gal
# Method in brief: as §1
# [3] = biological target: Gal(b1-3)Gal(b1-4)GlcNAc
# Method in brief: as §1
# [4] = biological target: Gal(b1-3)GalNAc
# Method in brief: as §1
# [5] = biological target: Gal(b1-3)GalNAc(b1-3)Gal(a1-4)Gal(b1-4)Glc
# Method in brief: as §1
# [6] = biological target: Gal(b1-3)GalNAc(b1-4)Gal(b1-4)Glc
# Method in brief: as §1
# [7] = biological target: Gal(b1-3)GalNAc(b1-4)[Neu5Ac(a2-3)]Gal(b1-4)Glc
# Method in brief: as §1
# [8] = biological target: Gal(b1-3)GlcNAc
# Method in brief: as §1
# [9] = biological target: Gal(b1-3)GlcNAc(b1-2)Man(a1-3)[Gal(b1-3)GlcNAc(b1-2)Man(a1-6)]Man(b1-4)GlcNAc(b1-4)GlcNAc
# Method in brief: as §1
# [10] = biological target: Gal(b1-3)GlcNAc(b1-3)Gal(b1-3)GlcNAc
# Method in brief: as §1
# [11] = biological target: Gal(b1-3)GlcNAc(b1-3)Gal(b1-4)Glc
# Method in brief: as §1
# [12] = biological target: Gal(b1-3)GlcNAc(b1-3)Gal(b1-4)GlcNAc
# Method in brief: as §1
# [13] = biological target: Gal(b1-3)[Fuc(a1-4)]GlcNAc
# Method in brief: as §1
# [14] = biological target: Gal(b1-3)[Fuc(a1-4)]GlcNAc(b1-3)Gal(b1-3)[Fuc(a1-4)]GlcNAc
# Method in brief: as §1
# [15] = biological target: Gal(b1-3)[Fuc(a1-4)]GlcNAc(b1-3)Gal(b1-4)GlcNAc
# Method in brief: as §1
# [16] = biological target: Gal(b1-3)[Fuc(a1-4)]GlcNAc(b1-3)Gal(b1-4)[Fuc(a1-3)]GlcNAc
# Method in brief: as §1
# [17] = biological target: Gal(b1-3)[GlcNAc(b1-6)]GalNAc
# Method in brief: as §1
# [18] = biological target: Gal(b1-3)[Neu5Ac(a2-6)]GalNAc
# Method in brief: as §1
# [19] = biological target: Gal(b1-3)[Neu5Ac(a2-6)]GlcNAc(b1-6)Gal(b1-4)Glc
# Method in brief: as §1
# [20] = biological target: Gal(b1-3)[Neu5Ac(b2-6)]GalNAc
# Method in brief: as §1
# [21] = biological target: Gal(b1-4)GalNAc(a1-3)[Fuc(a1-2)]Gal(b1-4)GlcNAc
# Method in brief: as §1
# [22] = biological target: Gal(b1-4)GalNAc(b1-3)[Fuc(a1-2)]Gal(b1-4)GlcNAc
# Method in brief: as §1
# [23] = biological target: Gal(b1-4)Glc
# Method in brief: as §1
# [24] = biological target: Gal(b1-4)Glc6S
# Method in brief: as §1
# [25] = biological target: Gal(b1-4)GlcNAc
# Method in brief: as §1
# [26] = biological target: Gal(b1-4)GlcNAc(a1-6)Gal(b1-4)GlcNAc
# Method in brief: as §1
# [27] = biological target: Gal(b1-4)GlcNAc(b1-2)Man(a1-3)[Gal(b1-4)GlcNAc(b1-2)Man(a1-6)]Man(b1-4)GlcNAc(b1-4)GlcNAc
# Method in brief: as §1
# [28] = biological target: Gal(b1-4)GlcNAc(b1-3)Gal(b1-3)GlcNAc
# Method in brief: as §1
# [29] = biological target: Gal(b1-4)GlcNAc(b1-3)Gal(b1-4)Glc
# Method in brief: as §1
# [30] = biological target: Gal(b1-4)GlcNAc(b1-3)Gal(b1-4)GlcNAc
# Method in brief: as §1
# [31] = biological target: Gal(b1-4)GlcNAc(b1-3)Gal(b1-4)GlcNAc(b1-3)Gal(b1-4)GlcNAc
# Method in brief: as §1
# [32] = biological target: Gal(b1-4)GlcNAc(b1-3)Gal(b1-4)[Fuc(a1-3)]GlcNAc(b1-3)Gal(b1-4)[Fuc(a1-3)]GlcNAc
# Method in brief: as §1
# [33] = biological target: Gal(b1-4)GlcNAc(b1-3)GalNAc
# Method in brief: as §1
# [34] = biological target: Gal(b1-4)GlcNAc(b1-3)[Gal(b1-4)GlcNAc(b1-6)]Gal(b1-4)GlcNAc
# Method in brief: as §1
# [35] = biological target: Gal(b1-4)GlcNAc(b1-3)[GlcNAc(b1-6)]Gal(b1-4)GlcNAc
# Method in brief: as §1
# [36] = biological target: Gal(b1-4)GlcNAc(b1-6)Gal(b1-4)GlcNAc
# Method in brief: as §1
# [37] = biological target: Gal(b1-4)GlcNAc(b1-6)Gal(b1-4)GlcNAc(b1-6)GalNAc
# Method in brief: as §1
# [38] = biological target: Gal(b1-4)GlcNAc(b1-6)GalNAc
# Method in brief: as §1
# [39] = biological target: Gal(b1-4)GlcNAc(b1-6)[Gal(b1-3)]GalNAc
# Method in brief: as §1
# [40] = biological target: Gal3S(b1-3)GalNAc
# Method in brief: as §1
# [41] = biological target: Gal3S(b1-3)GlcNAc
# Method in brief: as §1
# [42] = biological target: Gal3S(b1-3)[Fuc(a1-4)]GlcNAc
# Method in brief: as §1
# [43] = biological target: Gal3S(b1-4)Glc
# Method in brief: as §1
# [44] = biological target: Gal3S(b1-4)Glc6S
# Method in brief: as §1
# [45] = biological target: Gal3S(b1-4)GlcNAc
# Method in brief: as §1
# [46] = biological target: Gal3S(b1-4)GlcNAc6S
# Method in brief: as §1
# [47] = biological target: Gal3S(b1-4)[Fuc(a1-3)]Glc
# Method in brief: as §1
# [48] = biological target: Gal3S4S(b1-4)GlcNAc
# Method in brief: as §1
# [49] = biological target: Gal3S6S(b1-4)GlcNAc
# Method in brief: as §1
# [50] = biological target: Gal3S6S(b1-4)GlcNAc6S
# Method in brief: as §1
# [51] = biological target: Gal4S(b1-4)GlcNAc
# Method in brief: as §1
# [52] = biological target: Gal4S6S(b1-4)GlcNAc
# Method in brief: as §1
# [53] = biological target: Gal6S(b1-4)Glc
# Method in brief: as §1
# [54] = biological target: Gal6S(b1-4)Glc6S
# Method in brief: as §1
# [55] = biological target: Gal6S(b1-4)GlcNAc
# Method in brief: as §1
# [56] = biological target: Gal6S(b1-4)GlcNAc6S
# Method in brief: as §1
# [57] = biological target: GalNAc(a1-3)Gal
# Method in brief: as §1
# [58] = biological target: GalNAc(a1-3)GalNAc
# Method in brief: as §1
# [59] = biological target: GalNAc(b1-3)Gal
# Method in brief: as §1
# [60] = biological target: GalNAc(b1-3)Gal(a1-4)Gal(b1-4)GlcNAc
# Method in brief: as §1
# [61] = biological target: GalNAc(b1-3)GalNAc
# Method in brief: as §1
# [62] = biological target: GalNAc(b1-4)GlcNAc
# Method in brief: as §1
# [63] = biological target: Glc(a1-4)Glc
# Method in brief: as §1
# [64] = biological target: Glc(a1-6)Glc(a1-6)Glc
# Method in brief: as §1
# [65] = biological target: Glc(b1-4)Glc
# Method in brief: as §1
# [66] = biological target: Glc(b1-6)Glc
# Method in brief: as §1
# [67] = biological target: GlcA(b1-3)Gal
# Method in brief: as §1
# [68] = biological target: GlcA(b1-3)GlcNAc
# Method in brief: as §1
# [69] = biological target: GlcA(b1-6)Gal
# Method in brief: as §1
# [70] = biological target: GlcNAc(a1-3)Gal(b1-4)GlcNAc
# Method in brief: as §1
# [71] = biological target: GlcNAc(a1-6)Gal(b1-4)GlcNAc
# Method in brief: as §1
# [72] = biological target: GlcNAc(b1-2)Gal(b1-3)GalNAc
# Method in brief: as §1
# [73] = biological target: GlcNAc(b1-2)Man(a1-3)[GlcNAc(b1-2)Man(a1-6)]Man(b1-4)GlcNAc(b1-4)GlcNAc
# Method in brief: as §1
# [74] = biological target: GlcNAc(b1-3)Gal
# Method in brief: as §1
# [75] = biological target: GlcNAc(b1-3)Gal(b1-3)GalNAc
# Method in brief: as §1
binder,measurement,setting,value
B1,glycan array binding signal (z-score),[1],-0.409
same,glycan array binding signal (z-score),[2],0.411
same,glycan array binding signal (z-score),[3],0.222
same,glycan array binding signal (z-score),[4],0.044
same,glycan array binding signal (z-score),[5],-0.219
same,glycan array binding signal (z-score),[6],-0.278
same,glycan array binding signal (z-score),[7],0.269
same,glycan array binding signal (z-score),[8],-0.254
same,glycan array binding signal (z-score),[9],-0.187
same,glycan array binding signal (z-score),[10],-0.363
same,glycan array binding signal (z-score),[11],-0.269
same,glycan array binding signal (z-score),[12],0.833
same,glycan array binding signal (z-score),[13],-0.191
same,glycan array binding signal (z-score),[14],0.188
same,glycan array binding signal (z-score),[15],-0.026
same,glycan array binding signal (z-score),[16],0.219
same,glycan array binding signal (z-score),[17],0.212
same,glycan array binding signal (z-score),[18],-0.597
same,glycan array binding signal (z-score),[19],0.137
same,glycan array binding signal (z-score),[20],0.269
same,glycan array binding signal (z-score),[21],-0.338
same,glycan array binding signal (z-score),[22],-0.293
same,glycan array binding signal (z-score),[23],-0.228
same,glycan array binding signal (z-score),[24],-0.12
same,glycan array binding signal (z-score),[25],0.105
same,glycan array binding signal (z-score),[26],-0.497
same,glycan array binding signal (z-score),[27],-0.235
same,glycan array binding signal (z-score),[28],-0.512
same,glycan array binding signal (z-score),[29],-0.489
same,glycan array binding signal (z-score),[30],-0.92
same,glycan array binding signal (z-score),[31],0.54
same,glycan array binding signal (z-score),[32],0.481
same,glycan array binding signal (z-score),[33],-0.411
same,glycan array binding signal (z-score),[34],0.199
same,glycan array binding signal (z-score),[35],-0.385
same,glycan array binding signal (z-score),[36],0.014
same,glycan array binding signal (z-score),[37],0.286
same,glycan array binding signal (z-score),[38],1.13
same,glycan array binding signal (z-score),[39],-0.266
same,glycan array binding signal (z-score),[40],-0.36
same,glycan array binding signal (z-score),[41],-0.22
same,glycan array binding signal (z-score),[42],-0.393
same,glycan array binding signal (z-score),[43],-0.939
same,glycan array binding signal (z-score),[44],0.229
same,glycan array binding signal (z-score),[45],-0.036
same,glycan array binding signal (z-score),[46],-0.695
same,glycan array binding signal (z-score),[47],-0.34
same,glycan array binding signal (z-score),[48],0.073
same,glycan array binding signal (z-score),[49],-0.372
same,glycan array binding signal (z-score),[50],-0.298
same,glycan array binding signal (z-score),[51],-0.517
same,glycan array binding signal (z-score),[52],-0.679
same,glycan array binding signal (z-score),[53],0.018
same,glycan array binding signal (z-score),[54],-0.632
same,glycan array binding signal (z-score),[55],-0.513
same,glycan array binding signal (z-score),[56],0.105
same,glycan array binding signal (z-score),[57],-0.363
same,glycan array binding signal (z-score),[58],-0.803
same,glycan array binding signal (z-score),[59],-0.572
same,glycan array binding signal (z-score),[60],-0.532
same,glycan array binding signal (z-score),[61],-0.597
same,glycan array binding signal (z-score),[62],-0.259
same,glycan array binding signal (z-score),[63],0.041
same,glycan array binding signal (z-score),[64],-0.616
same,glycan array binding signal (z-score),[65],1.8
same,glycan array binding signal (z-score),[66],0.11
same,glycan array binding signal (z-score),[67],-0.466
same,glycan array binding signal (z-score),[68],-0.307
same,glycan array binding signal (z-score),[69],0.109
same,glycan array binding signal (z-score),[70],0.035
same,glycan array binding signal (z-score),[71],-0.736
same,glycan array binding signal (z-score),[72],0.05
same,glycan array binding signal (z-score),[73],-0.194
same,glycan array binding signal (z-score),[74],-0.481
same,glycan array binding signal (z-score),[75],-0.415
